# Assay results reported in paper PMC4336329 (PLoS ONE, 2015).
# Screen size: about 310,000 compounds; about 14,000 (4.5%) showed an effect of 50% or more. Effects have a minus sign here. Some of the results follow.
# Target: human ether-à-go-go-related gene (hERG) potassium channel (human, UniProt Q12809)
# Test: primary screen, population patch clamp on CHO cells stably expressing hERG
# 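Note: peak tail current of the secondary pulse compared with the same well before compound.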
# human ether-à-go-go-related gene (hERG) potassium channel, sequence (Q12809 whole entry, looked up): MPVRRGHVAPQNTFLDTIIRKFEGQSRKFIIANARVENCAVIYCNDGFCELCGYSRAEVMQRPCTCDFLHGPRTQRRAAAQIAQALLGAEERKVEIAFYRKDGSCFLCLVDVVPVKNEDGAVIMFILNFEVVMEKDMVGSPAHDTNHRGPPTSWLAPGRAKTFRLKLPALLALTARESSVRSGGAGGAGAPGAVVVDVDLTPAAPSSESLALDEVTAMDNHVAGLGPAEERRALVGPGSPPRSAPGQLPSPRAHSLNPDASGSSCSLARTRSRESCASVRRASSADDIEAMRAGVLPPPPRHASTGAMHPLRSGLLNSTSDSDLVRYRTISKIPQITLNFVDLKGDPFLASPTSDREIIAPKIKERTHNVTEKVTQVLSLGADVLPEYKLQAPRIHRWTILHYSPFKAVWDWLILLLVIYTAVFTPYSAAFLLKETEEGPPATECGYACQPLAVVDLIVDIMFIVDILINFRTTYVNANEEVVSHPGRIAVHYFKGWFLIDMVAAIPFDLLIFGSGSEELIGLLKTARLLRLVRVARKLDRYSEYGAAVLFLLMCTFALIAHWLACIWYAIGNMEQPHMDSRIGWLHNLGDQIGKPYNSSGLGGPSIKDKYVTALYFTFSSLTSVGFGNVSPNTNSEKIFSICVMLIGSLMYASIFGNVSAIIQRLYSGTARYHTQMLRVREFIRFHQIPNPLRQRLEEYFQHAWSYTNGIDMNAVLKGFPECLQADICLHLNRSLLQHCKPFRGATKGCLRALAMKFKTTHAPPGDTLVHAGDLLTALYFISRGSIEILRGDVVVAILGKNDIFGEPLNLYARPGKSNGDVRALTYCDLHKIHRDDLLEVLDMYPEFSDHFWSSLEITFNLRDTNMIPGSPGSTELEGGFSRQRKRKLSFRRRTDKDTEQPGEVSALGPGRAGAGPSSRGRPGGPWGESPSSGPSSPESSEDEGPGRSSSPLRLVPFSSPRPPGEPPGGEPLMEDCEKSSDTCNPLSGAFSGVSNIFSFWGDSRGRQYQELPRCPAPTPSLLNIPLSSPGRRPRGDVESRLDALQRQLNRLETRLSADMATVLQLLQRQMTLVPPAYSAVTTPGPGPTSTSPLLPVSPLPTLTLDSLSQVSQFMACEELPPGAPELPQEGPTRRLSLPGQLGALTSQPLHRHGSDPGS
row,SMILES,"hERG current change (%, negative = inhibition) at 10uM"
1,O=C1CN(O)C(c2ccccc2Cl)=c2cc(Br)ccc2=N1,19.7%
2,O=C(CCCN1C(=O)C2CCCCN2C1=O)N1CCN(c2ccc([N+](=O)[O-])cc2)CC1 (stereo not shown),-74.7%
3,CCN(CC)S(=O)(=O)c1ccc2[nH]cc(C(=O)NCCc3ccccc3)c(=O)c2c1,11.4%
4,O=C(Cc1nnc(NC(=O)c2ccccc2)s1)N/N=C/c1ccco1,6.79%
5,CCN(c1ccccc1)S(=O)(=O)c1cccc(C(=O)NCc2ccccn2)c1,-11.1%
6,Cc1ccc(C(=O)NC(NCC2CCCO2)C(Cl)(Cl)Cl)cc1 (stereo not shown),-10.5%
7,O=C(c1ccc(CNS(=O)(=O)c2cccc(Cl)c2)cc1)N1CCCCC1,13.6%
8,CC(=O)Nc1ccccc1Oc1ccccc1,5.79%
9,CNc1nc(SC)n(C)c(=O)c1N=O,10.1%
10,Cc1cc(C)n2nc(C(=O)N/N=C/c3ccccc3C)nc2n1,4.85%
11,CCOC(=O)C1(Cc2ccc(Cl)cc2)CCN(Cc2nccn2CC)CC1,-67.6%
12,CCN(CC)c1ccc(SS(=O)(=O)O)cc1,9.02%
13,Cc1ccc(Cl)cc1NC(=O)CN1CCOCC1,-0.857%
14,CCCn1c2ccccc2c2cnn(CC(=O)OC)c(=O)c21,-0.361%
15,COC(=O)c1cc(Cl)c(NC(=O)/C=C/c2ccc(OC)c(OC)c2)cc1OC,-22.4%
16,Cc1ccnc(NS(=O)(=O)c2ccc(N)cc2)n1,9.29%
17,CCOC(=O)c1ccc(S(=O)(=O)N2CCN(C)CC2)cc1,12.3%
18,O=C(Nc1ccc2nc[nH]c2c1)c1ccco1,-1.89%
19,COc1ccc(N=Cc2c(O)ccc3ccccc23)cc1,6.06%
20,O=C(CSc1c[nH]c2ccccc12)NC1CCCC1,11.2%
21,Nc1nonc1OCCN1CCN(c2ccc([N+](=O)[O-])c3cccnc23)CC1,-71.7%
22,COc1ccc(S(=O)(=O)N(C)CC(=O)N2CCC(C)CC2)cc1Cl,-0.646%
23,CNC(=O)Nc1ccc2nc(C)oc2c1,19.8%

row,SMILES,"hERG current change (%, negative = inhibition) at 10uM"
1,O=c1c2ccccc2nc(-c2ccoc2)n1-c1ccccc1Cl,3.06%
2,COc1ccccc1N1CCN(c2ccc(-c3ccccc3)nn2)CC1,-5.47%
3,N#CC1CC(c2ccc([N+](=O)[O-])cc2)=NN1c1ccc([N+](=O)[O-])cc1 (stereo not shown),-6.29%
4,O=C(Nc1csc(Cl)c1)c1ccccc1,-4.17%
5,COc1cc(C(=O)Sc2ccc(Cl)cc2)cc(OC)c1OC,11.2%
6,COc1ccc(-c2ccnc(-c3ccc(O)cc3)n2)cc1,5.37%
7,CCCC(=O)N(Cc1cc2cc(C)ccc2[nH]c1=O)c1ccccc1OC,6.09%
8,Fc1ccc(CNC2CCN(Cc3ccccc3)CC2)cc1,-65.3%
9,Cc1cccc(-n2nc3c([n+]2[O-])CCc2nonc2-3)c1C,11.4%
10,COC(=O)Oc1ccc(/C=C/C(=O)OC(C)C)cc1OC(=O)OC,1.69%
11,CN(CC(CC(=O)Nc1nncs1)c1ccccc1)S(=O)(=O)c1ccc(Br)cc1 (stereo not shown),-55.4%
12,CNC(=S)SCCOc1ccc(C)cc1,25%
13,CC(OC(=O)COc1ccccc1Cc1ccccc1)C(=O)N(C)c1ccccc1 (stereo not shown),-0.572%
14,O=C(Nc1ccc(Cl)cn1)c1ccc(COCC(F)(F)C(F)F)o1,-31.8%
15,Cc1nnsc1SCCNC(=O)c1ccc(F)cc1,9.04%
16,CCN(CC)c1ccc(C2C3CCCCC3(O)CCN2C(=O)c2cccs2)cc1 (stereo not shown),-7.15%
17,COc1cc(S(=O)(=O)N2CCCC2)c(C)cc1C,8.51%
18,O=S(=O)(c1ccc(Br)s1)N1CCN(Cc2ccc3c(c2)OCO3)CC1,4.87%
19,COC(=O)c1sc2nc(C)c([N+](=O)[O-])c(C)c2c1N,-17.6%
20,Cc1ccc(C(=O)CC(=O)c2cccc(F)c2)c(O)c1,7.49%
21,CC(=O)Nc1ccnn1C1CCN(C(=O)c2cccc(C)c2C)CC1,2.93%
22,COC(=O)COc1coc(CN2CCN(c3cccc(Cl)c3)CC2)cc1=O,-11.4%
23,CN(C(=O)c1ccc(Br)cc1)C1CCS(=O)(=O)C1 (stereo not shown),1.51%

row,SMILES,"hERG current change (%, negative = inhibition) at 10uM"
1,COc1ccccc1NC(=O)c1cc2c(CO)cnc(C)c2oc1=Nc1ccc(OC)c(OC)c1,13.3%
2,CCN1CCN(c2ccccc2NC(=O)C(C)Oc2ccc(C(C)=O)cc2)CC1 (stereo not shown),-51.6%
3,CCOc1ccc(-c2nnc3n2N=C(c2ccc(OC)cc2)CS3)cc1,0.919%
4,Br.COCC(C)NCc1cccc(C)c1 (stereo not shown),12.4%
5,CCCCN(C)CCCNC(=O)C1(O)c2ccccc2NC(=O)N1c1ccc(Cl)cc1 (stereo not shown),22.2%
6,COc1cc(NC(=O)c2cccc(Cl)c2)ccc1NC(=O)c1cccs1,4.34%
7,COc1ccc(OC)c(NC(=O)C(=O)NNC(=O)C23CC4CC(CC(C4)C2)C3)c1,15.8%
8,c1ccc(-c2cn(C[C@H]3CC[C@@H]([C@@H]4CC[C@H](Cn5cc(-c6ccccc6)nn5)O4)O3)nn2)cc1,-23.8%
9,CC(=O)Oc1ccc(C(=O)Cc2ccccn2)c(O)c1,-9.71%
10,Cc1ccc(NC(=O)CSc2nnc(NC(=O)c3ccco3)s2)cc1,-4.44%
11,CCOC(=O)c1ccc(N2C(=O)C3C(C2=O)C(C(=O)c2ccc(Cl)cc2)N2CCCC32)cc1 (stereo not shown),7.95%
12,COC(=O)c1c(F)c(F)c(NCCO)c(F)c1F,-12.3%
13,CCOC(=O)N1CCC(NC(=O)C2=CCN(S(=O)(=O)c3ccc(OC)cc3)CC2)CC1,-36.7%
14,CC(C)NC1CS(=O)(=O)CC1O (stereo not shown),-6.76%
15,Cc1ccc(NC(=O)c2cc(-c3ccc4c(c3)OCO4)on2)cc1,-29.4%
16,COc1ccc(NS(=O)(=O)c2cc(NC(=O)c3cccnc3Cl)ccc2N2CCCC2)cc1,-13.2%
17,CCN(CC)S(=O)(=O)c1ccc(C(=O)N2CCN=C2SC)cc1,15%
18,CCOc1ccc(-c2c(C(=O)N/N=C/C3CCCCC3)nnn2-c2nonc2N)cc1,14.4%
19,Cc1ccc(S(=O)(=O)N2CCN(C)CC2)cc1C,11.2%
20,COc1ccc2c(c1)-c1c(sn(-c3ccc(OC)c(OC)c3)c1=S)C(C)(C)N2,19.3%
21,O=C(NCC1CCCN(C(=O)c2cccc(C(F)(F)F)c2)C1)c1ccc(F)cc1 (stereo not shown),-8.13%
22,Cc1ccc(N(CC(=O)N2CCCCCC2)S(=O)(=O)c2ccccc2)cc1,-25.3%
23,O=C(CN1C(=O)C2(OCCO2)c2ccccc21)c1ccc(F)cc1,2.09%

row,SMILES,"hERG current change (%, negative = inhibition) at 10uM"
1,CN(C)S(=O)(=O)c1ccc(N2CCCC2)c(C(=O)OCC(=O)NC2CCCCC2)c1,-13.9%
2,COc1ccc(NC(=O)c2cnc3sccn3c2=O)cc1,-0.0573%
3,O=C(NC(=S)N1CCc2ccccc21)c1ccccc1Br,15.5%
4,O=C(OC1CCCCC1)c1cc2ccccc2oc1=O,-32.6%
5,CCOC(=O)C1CCN(CC(=O)c2c(C)n(C)c3ccc(OC)cc23)CC1,-43.9%
6,COc1ccc(CNC(=O)C(C)n2nc(C)n3c(cc4occc43)c2=O)cc1 (stereo not shown),1.62%
7,O=C(Cc1csc(NC(=O)c2ccc(F)cc2)n1)NO,-3.56%
8,CCN(CC)c1ccc(S(=O)(=O)N2CCCCC2)cc1NC(=O)C1=COCCO1,-20%
9,N/C(Cn1cncn1)=N\NC(=O)C(=O)Nc1ccccc1,32.3%
10,O=C(O)c1ccc2c(c1)CCC2,9.54%
11,COc1ccc(C2c3ccc4ccccc4c3Oc3ncn(Cc4ccco4)c(=N)c32)cc1OC (stereo not shown),-62.9%
12,CCN(CC(=O)NC(C)C)Cc1nc2sc3c(c2c(=O)[nH]1)CCC3,10.3%
13,CN(NC(=O)CN1C(=O)c2ccccc2C1=O)C1=NS(=O)(=O)c2ccccc21,21.7%
14,CC(C)(C)n1nnnc1C(c1cccs1)N1CCCC2(CCCCC2)C1 (stereo not shown),-1.31%
15,O=C1CC(c2nc3ccccc3[nH]2)CN1c1ccccc1 (stereo not shown),-12.8%
16,CCN(CC)S(=O)(=O)c1ccc(N2CCCC2)c(NC(=O)C2CCCCC2)c1,5.05%
17,O=C(O)CN(Cc1ccco1)S(=O)(=O)c1ccccc1,11.6%
18,COc1cc(C(C)=O)ccc1OCC(=O)Nc1ccc(Cl)c(S(=O)(=O)N2CCOCC2)c1,-66.7%
19,CCOC(=O)CCCn1ccc2cc(S(=O)(=O)N3CCCC3)ccc21,-17.4%
20,C=CC[n+]1ccn(-c2nc3ccccc3nc2[N-]S(=O)(=O)c2cccs2)c1,10.5%
21,O=C(CCCOc1ccccc1)OCn1nnc2ccccc2c1=O,16.2%
22,Cc1ccc(S(=O)(=O)N2CCN(C(=O)c3cc4c(s3)CCCC4)CC2)c(C)c1,0.0922%
